# From PubChem BioAssay AID1508624 (National Center for Advancing Translational Sciences (NCATS), 2021)
# In all, about 48,000 compounds went through this assay and about 120 (0.25%) were called active. Roughly 4% stayed inconclusive and do not appear here. Calls come from the whole dose curve; as a rule, active = well fitted activation curve with a large enough effect; inconclusive = small, poorly fitted or top-dose-only effect, or another doubt; inactive = no such curve, though single readings can be large or run the other way. Some of the results follow.
# Assay: Primary qHTS for Identification of Small Molecule Activators of Huntingtin-Antisense Promoter Activity; note: nearly all actives have a fitted effect of over 55% in size
# Conditions: HEK293 HTT-AS promoter firefly luciferase reporter (activity 0% = vehicle and -100% = no light), 24 h; series mostly up to 57.5 µM; activity change, positive = activation: at the top concentration
# Procedure, shortened: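 HEK293 luciferase promoter-reporter cells (2,500/well) plated 24 h, then compounds added at up to 57.5 uM final for 24 h at 37 °C. Firefly luminescence by Dual-Glo, normalized to vehicle (0%) and zero RLU (-100%).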
row,SMILES,"activity change, positive = activation"
1,Cc1cc(NC(=O)c2ccc3c(c2)OCCO3)cc(-c2nc3ccccc3o2)c1O,inactive: -2.4%
2,Cc1ccc(NS(=O)(=O)c2cc(-c3cnc(C4CC4)o3)ccc2C)cc1Cl,inactive: -36.4%
3,Nc1c(C(=O)Nc2ccccc2F)sc2nc3c(cc12)CCCCCC3,inactive: 30.1%
4,COc1ccc(NC(=O)N2CCOc3ccc(Cl)cc32)cc1,inactive: 1.33%
5,Cc1ccc(C(=O)COC(=O)c2cccc(NC(=O)c3ccc(Cl)cc3Cl)c2)cc1,inactive: -15.9%
6,CCC(C(=O)NCc1ccc(OC)c(OC)c1)n1nc(C)c2c(C)n(-c3ccc(C)cc3)nc2c1=O (stereo unspecified),inactive: -32.8%
7,CCOC(=O)c1c(NC(=O)c2cc3nc(-c4ccc(Br)cc4)cc(C(F)(F)F)n3n2)sc(C(C)=O)c1C,inactive: -14%
8,COc1ccc(Cc2nc3c4cnn(-c5ccccc5F)c4ncn3n2)cc1,inactive: -8.89%
9,COc1ccc(Cl)cc1N(C)C(=O)c1cc2c(=O)oc3ccc(C)cc3c2s1,inactive: -31.2%
10,CCCCNC(=O)c1cc(-c2ccc(OC)cc2)nc2n[nH]c(-c3cccc([N+](=O)[O-])c3)c12,inactive: -1.05%
11,CCc1ccccc1NC(=O)CN1CCCN(Cc2cc(C)ccc2C)S1(=O)=O,inactive: -32.6%
12,CCOC(=O)c1ccccc1NC(=O)CN1CCCN(Cc2cccc(Cl)c2)S1(=O)=O,inactive: -33.7%
13,CCCc1nn2c(=O)cc(COC(=O)c3ccc(NC(=O)C4CCCCC4)cc3)nc2s1,inactive: -11.1%
14,CC(C)Cc1nn2c(=O)cc(COC(=O)c3ccccc3NC(=O)C3CCCCC3)nc2s1,inactive: -1.53%
15,Cc1ccc(S(=O)(=O)NCc2nc3cccnc3n2Cc2ccccc2Cl)c(C)c1,inactive: -24.3%
16,CCc1nnc2c(Nc3ccc(N(CC)CC)cc3C)nc3ccccc3n12,inactive: -6.96%
17,Cc1cc(S(=O)(=O)Nc2ccc(C(=O)O)cc2)c(C)c(S(=O)(=O)c2ccc(Cl)cc2)c1,inactive: -15%
18,COc1ccc(C)cc1NC(=O)c1cn(C)c(=O)c2cc(OC)c(OC)cc12,inactive: -7.72%
19,COc1cccc(NS(=O)(=O)c2ccc3c(c2)N(C)C(=O)CC(=O)N3C)c1,inactive: 8.64%
20,COc1ccccc1NC(=O)CN1C(=O)c2ccccc2Sc2ccc(C(=O)N3CCCC3)cc21,inactive: -29.2%
21,CCc1ccccc1NC(=O)N1CC(C)Sc2ccccc21 (stereo unspecified),inactive: -19.8%

row,SMILES,"activity change, positive = activation"
1,CC(=O)c1ccccc1OCC(O)Cn1c(CO)nc2ccccc21 (stereo unspecified),inactive: -6.2%
2,O=C(Nc1ccc(Br)cc1F)N1CC=C(c2c[nH]c3ccccc23)CC1,inactive: -23.2%
3,CC(=O)c1ccc(NC(=O)c2nc(-c3ccccc3)n(-c3ccccc3)n2)cc1,inactive: -14.2%
4,CC(CCc1ccccc1)NC(=O)CSc1n[nH]c(-c2ccc(F)cc2)n1 (stereo unspecified),inactive: -32.8%
5,COc1ccc(CNC(=O)CN2C(=O)CCn3nc(-c4ccccc4)cc32)c(OC)c1,inactive: -5.58%
6,Cc1cccc(Cn2cc(C(=O)Nc3cc(F)ccc3F)ccc2=O)c1,inactive: -18.4%
7,COc1ccc(-c2ccc(CCC(=O)O)n2-c2ccccc2O)cc1,inactive: 19.2%
8,COc1ccc(C(=O)c2sc3nc(-c4ccc(F)cc4)ccc3c2N)cc1,inactive: -8.54%
9,COc1ccc(-c2nc(Cn3c(SCc4cccc(C(F)(F)F)c4)nc4cccnc43)c(C)o2)cc1OC,inactive: -38.4%
10,Cc1oc2ncn(C)c(=O)c2c1C(=O)NCc1ccc(Cl)cc1,inactive: 1.57%
11,Cn1c(Nc2ccc(Cl)cc2)cc(=O)n(C)c1=O,inactive: -3.71%
12,CC1=C(C(=O)Nc2ccc(C)cc2C)C(c2ccc(O)cc2)n2nc(SCC(=O)c3ccc(C)cc3)nc2N1 (stereo unspecified),inactive: -12.5%
13,COc1ccc(-c2nn3c(=O)cc(CN4CCN(S(=O)(=O)c5ccc(C)cc5)CC4)nc3s2)cc1,inactive: -4.02%
14,Cc1cc(OCC(O)CN2CCN(c3cccc(Cl)c3)CC2)ccc1Cl (stereo unspecified),inactive: 0.638%
15,COc1ccc(C(=O)Nc2ccc(S(=O)(=O)N(Cc3ccccc3)c3ccccc3)cc2)cc1,inactive: -38.1%
16,COc1ccccc1C1C(C(=O)Nc2ccccc2)=C(C)Nc2nc(-c3ccccc3)nn21 (stereo unspecified),inactive: -14%
17,Nc1cccc(-c2cc3c(Oc4cccc(O)c4)ncnc3[nH]2)c1,inactive: -21.5%
18,CC(=O)N1CCc2cc(S(=O)(=O)NC(Cc3ccccc3)C(=O)Nc3cc(C)cc(C)c3)ccc21 (stereo unspecified),inactive: -2.42%
19,COc1ccccc1N1CCN(Cc2nc(-c3cc(OC)c(OC)c(OC)c3)no2)CC1,inactive: -30.4%
20,CC1CCCCN1CCCNC(=O)Cn1ncc2c3ccccc3n(Cc3ccccc3)c2c1=O (stereo unspecified),inactive: 0.937%
21,Cc1ccc(Cl)cc1N1CCN(C(=O)CCc2nnc3n(C)c(=O)c4ccccc4n23)CC1,inactive: -12.9%

row,SMILES,"activity change, positive = activation"
1,CCN(Cc1ccccc1)C(=O)c1cn(-c2cccc(OC)c2)c(=O)c2ccccc12,inactive: -14.1%
2,Cc1ccc(NC(=O)CSc2nc3n[nH]c(C)c3c(=N)n2-c2ccccc2C)cc1C,inactive: -38.2%
3,O=C(Cn1ncc2c3ccccc3n(Cc3ccccc3)c2c1=O)NCCCN1CCCCC1,inactive: -1.32%
4,CC1CN(C(=O)N2CCC(C(=O)NCc3ccco3)CC2)c2ccccc2O1 (stereo unspecified),inactive: -8.42%
5,CCCCC(F)(F)[C@@]1(O)CC[C@H]2[C@H](CC(=O)[C@@H]2CCCCCCC(=O)O)O1,inactive: -7.37%
6,Cc1ccc2ncc(C(=O)c3ccc(C)c(C)c3)c(S(=O)(=O)c3ccccc3)c2c1,inactive: -56.7%
7,CCOc1cccc(C2c3c(oc4ccc(F)cc4c3=O)C(=O)N2c2cc(C)ccn2)c1 (stereo unspecified),inactive: -4.83%
8,CC1CCN(c2nc3ccccc3nc2C(F)(F)F)CC1,inactive: 9.77%
9,Cc1cccc(CN2C(=O)c3ccccc3Sc3ccc(C(=O)NCCCN4CCOCC4)cc32)c1,inactive: -28.8%
10,COc1c(O)cc2c(c1O)[C@@H]1O[C@H](CO)[C@@H](O)[C@H](O)[C@H]1OC2=O,inactive: -6.75%
11,CCN(CC)S(=O)(=O)c1nnc(NC(=O)c2ccc(C)cc2)s1,inactive: 10.3%
12,C[C@@H]1CCN(C(=O)CC#N)C[C@H]1N(C)c1ncnc2[nH]ccc12,inactive: -12.6%
13,Cc1ccc(-c2nc(CS(=O)(=O)CC(=O)N3CCN(c4ccccc4)CC3)c(C)o2)cc1,inactive: -44.6%
14,COc1ccc(CNC(=O)c2cc3c(=O)n(Cc4ccc(OC)cc4)ccc3nc2C)cc1,inactive: -28.5%
15,COc1cc(Br)cc2cc(S(=O)(=O)c3ccccc3)c(=O)oc12,inactive: -9.55%
16,CCCSCCCNC(=O)c1sc2nc(C)cc(C)c2c1-n1cccc1,inactive: 3.05%
17,Cc1ccc(-c2noc(-c3cccnc3N(C)Cc3ccc(Cl)cc3)n2)cc1,inactive: 0.453%
18,COc1cccc(NCc2nnc3n2CCCCC3)c1,inactive: 17.2%
19,CCOc1ccc(NC(=O)CN(c2ccc(C)cc2)S(=O)(=O)c2cccs2)cc1,inactive: -7.64%
